The list shows a part of the results. The full chains were built here from the parent and the listed change. Values near 0.05 are background.
B1: TEV protease; numbered along this chain (parent)
chain: MGESLFKGPRDYNPISSSICHLTNESDGHTTSLYGIGFGPFIITNKHLFRRNNGTLVVQSLHGVFKVKDTTTLQQHLVDGRDMIIIRMPKDFPPFPQKLKFREPQREERICLVTTNFQTKSMSSMVSDTSCTFPSGDGIFWKHWIQTKDGQCGSPLVSTRDGFIVGIHSASNFTNTNNYFTSVPKNFMELLTNQEAQQWVSGWRLNADSVLWGGHKVFMVKPEEPFQPVKEATQL

Variants of: B1
Experiment: raw area under fraction-flipped curve 0-4 h after induction (AUC4h, not background-subtracted), DNA-recorder readout of cleavage of the substrate (dimensionless); higher = more cleavage of the substrate by the protease variant
Conditions: temperature: 34 °C; time window: 0-4 h after rhamnose induction
Method: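 In vivo DNA recorder in E. coli TOP10(DE3) ΔrhaA at 34 °C. Each TEVp single-site mutant (parent TEVp 0) is paired with a single-site variant of the 7-mer TEVs (canonical ENLYFQ|S). The substrate sits between flexible linkers in a Bxb1-sfGFP-TEVs-SsrA fusion, so cleavage stabilises Bxb1 and speeds flipping of a recombination array, read by NGS. The value is the raw area under the fraction-flipped curve over 0-4 h after rhamnose induction (AUC4h), with ≥20 reads per time point. It is not background-subtracted; inactive controls average about 0.047.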
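Note: Bxb1 expression induced with 0.2% (w/v) L-rhamnose at OD600 near 0.5, cultures sampled hourly, flipped fraction per protease–substrate barcode pair counted by paired-end Illumina sequencing.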

MGESLFKGPRDYNPISSSICHLTNESDGHTTSLYGIGFGPFIITNKHLFRRNNGTLVVQSLHGVFKVKDTTTLQQHLVDGRDMIIIRMPKDFPPFPQKLKFREPQREFRICLVTTNFQTKSMSSMVSDTSCTFPSGDGIFWKHWIQTKDGQCGSPLVSTRDGFIVGIHSASNFTNTNNYFTSVPKNFMELLTNQEAQQWVSGWRLNADSVLWGGHKVFMVKPEEPFQPVKEATQL [E108F]
area with substrate EALYFQS: 0.0765
area with substrate EELYFQS: 0.068
area with substrate EGLYFQS: 0.0521
area with substrate EILYFQS: 0.073
area with substrate EKLYFQS: 0.111
area with substrate EPLYFQS: 0.0553
area with substrate EQLYFQS: 0.0614
area with substrate ESLYFQS: 0.0526
area with substrate ETLYFQS: 0.0396

MGESLFKGPRDYNPISSSICHLTNESDGHTTSLYGIGFGPFIITNKHLFRRNNGTLVVQSLHGVFKVKDTTTLQQHLVDGRDMIIIRMPKDFPPFPQKLKFREPQREERLCLVTTNFQTKSMSSMVSDTSCTFPSGDGIFWKHWIQTKDGQCGSPLVSTRDGFIVGIHSASNFTNTNNYFTSVPKNFMELLTNQEAQQWVSGWRLNADSVLWGGHKVFMVKPEEPFQPVKEATQL [I110L]
area with substrate EALYFQS: 0.13
area with substrate EELYFQS: 0.139
area with substrate EHLYFQS: 0.168
area with substrate EILYFQS: 0.107
area with substrate EKLYFQS: 0.104
area with substrate ERLYFQS: 0.126
area with substrate ESLYFQS: 0.105
area with substrate EVLYFQS: 0.111
area with substrate EWLYFQS: 0.13
area with substrate EYLYFQS: 0.121

MGESLFKGPRDYNPISSSICHLTNESDGHTTSLYGIGFGPFIITNKHLFRRNNGTLVVQSLHGVFKVKDTTTLQQHLVDGRDMIIIRMPKDFPPFPQKLKFREPQREERICLFTTNFQTKSMSSMVSDTSCTFPSGDGIFWKHWIQTKDGQCGSPLVSTRDGFIVGIHSASNFTNTNNYFTSVPKNFMELLTNQEAQQWVSGWRLNADSVLWGGHKVFMVKPEEPFQPVKEATQL [V113F]
area with substrate EALYFQS: 0.072
area with substrate ECLYFQS: 0.0918
area with substrate EILYFQS: 0.0809
area with substrate EKLYFQS: 0.102
area with substrate EMLYFQS: 0.121
area with substrate EQLYFQS: 0.124
area with substrate EWLYFQS: 0.0685

MGESLFKGPRDYNPISSSICHLTNESDGHTTSLYGIGFGPFIITNKHLFRRNNGTLVVQSLHGVFKVKDTTTLQQHLVDGRDMIIIRMPKDFPPFPQKLKFREPQREERICLRTTNFQTKSMSSMVSDTSCTFPSGDGIFWKHWIQTKDGQCGSPLVSTRDGFIVGIHSASNFTNTNNYFTSVPKNFMELLTNQEAQQWVSGWRLNADSVLWGGHKVFMVKPEEPFQPVKEATQL [V113R]
area with substrate EALYFQS: 0.0814
area with substrate EDLYFQS: 0.0795
area with substrate EELYFQS: 0.0676
area with substrate EFLYFQS: 0.0625
area with substrate EGLYFQS: 0.0112
area with substrate EHLYFQS: 0.0287
area with substrate EILYFQS: 0.0695
area with substrate EKLYFQS: 0.0673
area with substrate ELLYFQS: 0.0632
area with substrate EMLYFQS: 0.0567
area with substrate EPLYFQS: 0.0583
area with substrate ERLYFQS: 0.065
area with substrate ESLYFQS: 0.0748
area with substrate ETLYFQS: 0.0808
area with substrate EVLYFQS: 0.0514

MGESLFKGPRDYNPISSSICHLTNESDGHTTSLYGIGFGPFIITNKHLFRRNNGTLVVQSLHGVFKVKDTTTLQQHLVDGRDMIIIRMPKDFPPFPQKLKFREPQREERICLVETNFQTKSMSSMVSDTSCTFPSGDGIFWKHWIQTKDGQCGSPLVSTRDGFIVGIHSASNFTNTNNYFTSVPKNFMELLTNQEAQQWVSGWRLNADSVLWGGHKVFMVKPEEPFQPVKEATQL [T114E]
area with substrate EALYFQS: 0.0903
area with substrate ECLYFQS: 0.09
area with substrate EILYFQS: 0.0996
area with substrate EKLYFQS: 0.0945
area with substrate ELLYFQS: 0.0682
area with substrate ERLYFQS: 0.0825
area with substrate ESLYFQS: 0.0864
area with substrate ETLYFQS: 0.0968
area with substrate EVLYFQS: 0.0819
area with substrate EWLYFQS: 0.0749

MGESLFKGPRDYNPISSSICHLTNESDGHTTSLYGIGFGPFIITNKHLFRRNNGTLVVQSLHGVFKVKDTTTLQQHLVDGRDMIIIRMPKDFPPFPQKLKFREPQREERICLVTTHFQTKSMSSMVSDTSCTFPSGDGIFWKHWIQTKDGQCGSPLVSTRDGFIVGIHSASNFTNTNNYFTSVPKNFMELLTNQEAQQWVSGWRLNADSVLWGGHKVFMVKPEEPFQPVKEATQL [N116H]
area with substrate EALYFQS: 0.0821
area with substrate ECLYFQS: 0.0836
area with substrate EMLYFQS: 0.105
area with substrate EPLYFQS: 0.111
area with substrate ERLYFQS: 0.104
area with substrate ESLYFQS: 0.122

MGESLFKGPRDYNPISSSICHLTNESDGHTTSLYGIGFGPFIITNKHLFRRNNGTLVVQSLHGVFKVKDTTTLQQHLVDGRDMIIIRMPKDFPPFPQKLKFREPQREERICLVTTNQQTKSMSSMVSDTSCTFPSGDGIFWKHWIQTKDGQCGSPLVSTRDGFIVGIHSASNFTNTNNYFTSVPKNFMELLTNQEAQQWVSGWRLNADSVLWGGHKVFMVKPEEPFQPVKEATQL [F117Q]
area with substrate EALYFQS: 0.12
area with substrate ECLYFQS: 0.18
area with substrate EHLYFQS: 0.103
area with substrate EILYFQS: 0.0969
area with substrate EMLYFQS: 0.136
area with substrate EPLYFQS: 0.103
area with substrate EQLYFQS: 0.158
area with substrate ERLYFQS: 0.142
area with substrate ESLYFQS: 0.15
area with substrate ETLYFQS: 0.113
area with substrate EVLYFQS: 0.0768
area with substrate EWLYFQS: 0.126
area with substrate EYLYFQS: 0.116

MGESLFKGPRDYNPISSSICHLTNESDGHTTSLYGIGFGPFIITNKHLFRRNNGTLVVQSLHGVFKVKDTTTLQQHLVDGRDMIIIRMPKDFPPFPQKLKFREPQREERICLVTTNFITKSMSSMVSDTSCTFPSGDGIFWKHWIQTKDGQCGSPLVSTRDGFIVGIHSASNFTNTNNYFTSVPKNFMELLTNQEAQQWVSGWRLNADSVLWGGHKVFMVKPEEPFQPVKEATQL [Q118I]
area with substrate EALYFQS: 0.138
area with substrate ECLYFQS: 0.0914
area with substrate EELYFQS: 0.125
area with substrate EILYFQS: 0.102
area with substrate EPLYFQS: 0.135
area with substrate EQLYFQS: 0.108
area with substrate ERLYFQS: 0.121
area with substrate ESLYFQS: 0.064

MGESLFKGPRDYNPISSSICHLTNESDGHTTSLYGIGFGPFIITNKHLFRRNNGTLVVQSLHGVFKVKDTTTLQQHLVDGRDMIIIRMPKDFPPFPQKLKFREPQREERICLVTTNFKTKSMSSMVSDTSCTFPSGDGIFWKHWIQTKDGQCGSPLVSTRDGFIVGIHSASNFTNTNNYFTSVPKNFMELLTNQEAQQWVSGWRLNADSVLWGGHKVFMVKPEEPFQPVKEATQL [Q118K]
area with substrate EALYFQS: 0.0614
area with substrate ECLYFQS: 0.0997
area with substrate EGLYFQS: 0.049
area with substrate EKLYFQS: 0.138
area with substrate EPLYFQS: 0.0605
area with substrate EQLYFQS: 0.0841
area with substrate ERLYFQS: 0.049
area with substrate ESLYFQS: 0.0704
area with substrate EWLYFQS: 0.0641

MGESLFKGPRDYNPISSSICHLTNESDGHTTSLYGIGFGPFIITNKHLFRRNNGTLVVQSLHGVFKVKDTTTLQQHLVDGRDMIIIRMPKDFPPFPQKLKFREPQREERICLVTTNFPTKSMSSMVSDTSCTFPSGDGIFWKHWIQTKDGQCGSPLVSTRDGFIVGIHSASNFTNTNNYFTSVPKNFMELLTNQEAQQWVSGWRLNADSVLWGGHKVFMVKPEEPFQPVKEATQL [Q118P]
area with substrate EALYFQS: 0.0865
area with substrate ECLYFQS: 0.111
area with substrate EFLYFQS: 0.0899
area with substrate EGLYFQS: 0.0864
area with substrate EHLYFQS: 0.115
area with substrate EILYFQS: 0.0932
area with substrate ESLYFQS: 0.107
area with substrate EVLYFQS: 0.0954
area with substrate EWLYFQS: 0.101
area with substrate EYLYFQS: 0.0813

Source: the supplement of paper PMC12217912
